These results are taken from PubChem BioAssay AID463173 (ICCB-Longwood Screening Facility, Harvard Medical School, 2010).

In all, about 52,000 compounds went through this assay and about 1,700 (3.3%) were called active. Cut-off read from the data, not from the text of the source: active = survival mostly below about 52% (no sharp cut-off); inactive = mostly above about 56%. The list shows a part of the results.

For this assay, the system named is Wild type. Description: S. aureus survival, RN4220 and DeltatarO strains – OD600, teichoic acid synthesis inhibitors, primary screen (AID 463173). Particulars: S. aureus RN4220 wild type/DeltatarO growth, OD600, 18 h, hits give low values, screened at 18.75 µg/mL (by protocol).
Take `O=C(c1cc2ccccc2oc1=O)N(Cc1ccc(F)cc1)C1CC1`: the survival was inactive: 102%.
Then `Cc1ccc(-n2ncc(C(=O)N3CCN(c4cccc(C)c4C)CC3)c2C2CCNCC2)c(C)c1`, with inactive: 84%; and `COc1ccc(Br)cc1CC1C(=O)Nc2ccccc21` (stereo not given), with inactive: 70%.
Then `COc1ccccc1NC(=O)C1=C(C)Nc2nc(SCc3ccccc3Cl)nn2C1c1cccnc1` (stereo not given), with inactive: 173%.
Then `CN(C(=O)NCc1noc2ccccc12)c1cccc(Cl)c1`, with inactive: 86%; and `CCCN1C(C(=O)c2ccccc2)=C(OC(=O)C(C)(C)C)c2ccccc2S1(=O)=O`, with inactive: 86%.
In the case of `Cc1ccc(NC(=O)CN2CCN(C3CCCCC3)C(=O)C2=O)cc1C`, the survival was inactive: 82%.
Then `Cc1ccc2c(c1)sc1nc(=O)n(-c3cccc(Cl)c3)c(=O)n12`, with inactive: 70%; and `Cc1cc(Cl)ccc1NS(=O)(=O)c1cc2[nH]c(=O)c(=O)[nH]c2cc1C`, with inactive: 78%; and `COc1ccc(-c2nc(N)n(C(C)=O)n2)cc1`, with inactive: 107%.
Regarding `Cc1ccc(-n2c(=O)[nH]c3sc4c(c3c2=O)CCNC4)cc1C`, the survival was inactive: 65%.
The value for `CCCCc1nn2c(C)c(-c3ccc(OCC)cc3)nc2s1` was inactive: 98%; that for `CCOC(=O)C1CCN(C(=O)Cn2nc(CC)n3c(cc4occc43)c2=O)CC1` was inactive: 79%; that for `Cc1ccc(NC(c2cccc(Cl)c2)c2nnc(-c3ccccc3)o2)cc1F` (stereo not given) was inactive: 90%.
The value for `O=C(Cn1ncc2c3ccccc3n(Cc3cccc(Cl)c3)c2c1=O)N1CCCCC1` was inactive: 94%.
On to `COc1ccc(CN2C(=O)c3ccccc3C2C(=O)NC2CCCCCC2)c(OC)c1` (stereo not given), for which the survival was inactive: 90%.
Then `Cc1ccc(Cl)cc1NC(=O)C(=O)NCCc1sc(-c2ccc(F)cc2)nc1C`, with inactive: 73%; and `COc1ccc(CC(=O)Nc2sc3c(c2C(=O)Nc2c(C)cccc2C)CCCCC3)cc1`, with inactive: 90%; and `COc1ccc(NC(=O)CSC2=Nc3ccccc3C3=NC(CC(=O)NCc4ccc(F)cc4)C(=O)N23)cc1` (stereo not given), with inactive: 66%.
As for `CCc1ccc(-c2nn(CC(=O)NC3CCCCC3)c3c2cnc2ccc(OC)cc23)cc1`, the survival was inactive: 73%.
The value for `COC(=O)Cc1ccc2c3ccccc3n(C)c2c1` was inactive: 112%; that for `COc1cccc(NC(=O)/C(C#N)=C\c2cn(Cc3ccc(Cl)cc3)c3ccccc23)c1` was inactive: 88%.
`Cc1cccc(S(=O)(=O)c2cn(Cc3ccccc3)c3cc(N4CCCCC4C)c(F)cc3c2=O)c1` (stereo not given): the survival is inactive: 71%.
Then `CCCOc1ccc(C(=O)Nc2c(C(=O)c3ccc(C)cc3)oc3ccccc23)cc1`, with inactive: 54%; and `COc1ccc(CNC(=O)Cn2c(=O)oc3cc(S(=O)(=O)N4CCCC4)ccc32)cc1`, with inactive: 91%.
Then `COc1ccc2c(C)c(CCC(=O)NCCc3ccc(Cl)cc3)c(=O)oc2c1`, with inactive: 69%; and `CCCCc1ccc(C(=O)N/C(=C\c2ccc(C)cc2)C(=O)NC2CCCCC2)cc1`, with inactive: 68%.
Regarding `Cc1cc(C(F)F)n2nc(C(=O)Nc3ccc(F)c(Cl)c3)nc2n1`, the survival is inactive: 83%.
For the molecule `Cc1ccc(Cl)cc1N1CCN(C(=O)c2ccc(C)c(-n3c(C)nc4cccnc43)c2)CC1`, the survival was inactive: 126%.
For the molecule `CCc1nc2ccc(C(=O)N3CCN(c4ccc(Cl)cc4)CC3)cc2nc1CC`, the survival was inactive: 73%.
For `CCOc1ccc(C(=O)N(CC#N)CC#N)cc1`, the survival was inactive: 110%.
In the case of `NNC(=O)CNC(=O)c1cccs1`, the survival was inactive: 125%.
As to `O=C(CC1N=C2c3ccccc3N=C(SCc3ccccc3F)N2C1=O)NCc1cccs1` (stereo not given), the survival was inactive: 75%.
On to `COc1cccc(Nc2nc(-c3ccccc3)c3cc(C)ccc3n2)c1`, for which the survival is active: 9%.
The value for `Cc1cccc(CNC(=O)c2ccc(Cn3c(=O)c4cccn4c4cccnc43)cc2)c1` was inactive: 82%; that for `COc1cc(C2CC(=O)Nc3c2c(=O)nc2c(C)cccn32)cc(OC)c1OC` (stereo not given) was inactive: 75%; that for `CCS(=O)(=O)N1CCN(C(=O)c2ccc(OC)cc2)CC1` was inactive: 100%.
Turning to `CCN(CCCNC(=O)c1cc2cc3ccc(OC)cc3nc2s1)c1ccccc1`, the survival was inactive: 90%.
In the case of `Cc1ccc(NC(=O)C(Cc2ccccc2)NS(=O)(=O)c2cccc3nsnc23)c(C)c1` (stereo not given), the survival is inactive: 123%.
Then `CCN1CCC(N(Cc2ccc3c(c2)OCO3)C(=O)Nc2ccc(Br)c(C)c2)CC1`, with inactive: 73%.
The value for `Cc1nn2c(-c3cccc(NC(=O)c4ccc(Cl)cc4)c3)nnc2c2ccccc12` was inactive: 113%; that for `CCS(=O)(=O)N1CCc2cc(C(=O)Nc3cc(Cl)ccc3C)ccc21` was inactive: 86%; that for `C=CCNC(=O)c1cccc(Br)c1` was inactive: 104%.
`COc1ccc(-n2c(-c3ccco3)nc3c(cnn3-c3ccc(C)cc3)c2=O)cc1`: the survival is inactive: 78%.
The value for `CCOC(=O)c1c(C)[nH]c(CCC(=O)Nc2ccccc2C(=O)OC)c1C` was inactive: 67%.
The value for `CC(C)C(=O)Nc1ccc2nc(SCCOc3ccccc3)sc2c1` was inactive: 93%; that for `CCn1c(=O)n(CC)c2cc(N3CCCCC3)c(NC(=O)Nc3cc(Cl)ccc3OC)cc21` was inactive: 55%.
The value for `COc1ccc(CCNC(=O)CCS(=O)(=O)c2ccc3c(c2)oc(=O)n3C)cc1OC` was inactive: 125%.
`CCCCOCc1cc(CN2CCN(c3cccc(Cl)c3)CC2)c(O)c2ncccc12`: the survival was inactive: 127%.
For the molecule `Cc1ccc(N2CCN(C(=O)c3cn(C)c4ccc(S(=O)(=O)N(C)C5CCCCC5)cc4c3=O)CC2C)cc1` (stereo not given), the survival was inactive: 85%.
Consider `O=C(CSc1nnc(CNC(=O)c2c(F)cccc2Cl)o1)Nc1cccc(F)c1`, for which the survival is inactive: 83%.
The value for `CCOc1ccc(NS(=O)(=O)c2ccc(NC(=O)N3CCCC3)cc2)cc1` was inactive: 73%.
For `O=C(Nc1ccc2nn(-c3ccccc3)nc2c1)c1ccc(-c2cccc(Cl)c2)o1`, the survival was inactive: 110%.
The value for `CCOC(=O)/C(C)=C1\NC(C)(C)Cc2ccccc21` was inactive: 109%.
Then `CCOc1ccc(C(=O)N2CCN(Cc3cc(=O)n4nc(-c5ccccc5Cl)sc4n3)CC2)cc1`, with inactive: 58%.
The value for `COc1ccccc1NC(=O)C1=C(C)Nc2nc(SCc3cc(C)ccc3C)nn2C1c1ccccc1` (stereo not given) was inactive: 135%; that for `O=C(c1cccs1)N1CCCc2cc(NS(=O)(=O)c3ccc(F)cc3)ccc21` was inactive: 131%; that for `CC(C)Cn1c(/C=C/c2ccc(F)cc2)nc2ccccc21` was active: -12%.
Consider `COCCCNC(=O)CCc1c(C)nc2cc(-c3ccc(Cl)cc3)nn2c1C`, for which the survival was inactive: 121%.
As to `O=C(c1ccc2c(=O)n(CCc3ccccc3)c(=O)[nH]c2c1)N1CCN(c2ccc(Cl)cc2)CC1`, the survival is inactive: 60%.
Then `CCn1c(C)c(C)c2cc(C(=O)NCCc3ccc(C)cc3)ccc21`, with inactive: 80%.
The value for `Cc1ccc(C)c(NC(=O)c2cc(=O)c3cc(C)cc(C)c3o2)c1` was inactive: 84%.
Turning to `Cc1ccc(NC(=O)Cn2c(=O)ccc3cc(S(=O)(=O)N4CCC(C)CC4)ccc32)cc1Cl`, the survival was inactive: 88%.
Then `COc1cccc(NC(=O)CCNC(=O)Cn2ccc3ccccc3c2=O)c1`, with inactive: 70%.
Then `COc1ccc(N(C)C(=O)c2ccc3c(c2)nnn3C)cc1`, with inactive: 111%.
The value for `Cc1ccccc1CS(=O)(=O)Cc1ccc(C(=O)NCc2ccc(F)cc2)o1` was inactive: 60%.
Consider `CC(C)C(=O)OCc1cc(=O)n2nc(C3CCCCC3)sc2n1`, for which the survival was inactive: 76%.
The value for `CCc1ccc(NCc2cc3cc4c(cc3n(CC(=O)Nc3ccc(F)cc3)c2=O)OCCO4)cc1` was inactive: 45%; that for `COc1ccc(CNC(=O)C2CCN(S(=O)(=O)c3cccc4nonc34)CC2)cc1OC` was inactive: 77%; that for `Cc1ccc(NC(=O)CSc2nnc(N)s2)c(C)c1` was inactive: 131%.
Take `CCCCNC(=O)CCc1c(C)nc2c(c(C)nn2-c2ccccc2)c1C`: the survival is inactive: 81%.
Take `CCN(CC)c1ccc(C2C(C(N)=O)=C(C)Nc3ncnn32)cc1` (stereo not given): the survival was inactive: 53%.
Take `Cn1ccnc1SCC(=O)Nc1cc(Cl)ccc1Cl`: the survival was inactive: 66%.
Take `Cc1ccc(NC(=O)C2CCCN2S(=O)(=O)c2cccc3cccnc23)cc1C` (stereo not given): the survival was inactive: 70%.
With `Cc1cccc(CS(=O)(=O)c2ncc(Cl)c(C(=O)NCc3ccccc3)n2)c1`, the survival was inactive: 27%.
Then `COc1ccccc1N1CCN(C(CNC(=O)C(=O)NCCc2ccccc2)c2cccnc2)CC1` (stereo not given), with inactive: 81%; and `O=C(NCCc1ccccc1)c1cc(Sc2ccc(F)cc2F)nc2ccccc12`, with inactive: 88%.
The value for `Cc1ccccc1CN1CCCN(CC(=O)Nc2c(C)cccc2C)S1(=O)=O` was inactive: 66%.
In the case of `COc1cccc(OCc2nc3ccccc3n2CCOc2cccc(C)c2)c1`, the survival is inactive: 73%.
Then `N#Cc1cnc(SCc2ccccc2)nc1N`, with inactive: 98%; and `Fc1ccc(CNc2nc(-c3ccccc3)cc(C(F)(F)F)n2)cc1`, with active: -3%; and `CCC(C(=O)Nc1ccc(C(C)=O)cc1)n1c(C)c2cnn(-c3ccccc3)c(=O)c2c1C` (stereo not given), with inactive: 92%.
Then `COc1ccc(NS(=O)(=O)c2ccc3[nH]c4c(c3c2)CCCCCC4)cc1`, with active: -4%; and `Cn1c(=O)c2c(nc(SCC(=O)Nc3ccc(F)cc3)n2Cc2ccccc2)n(C)c1=O`, with inactive: 70%.
For the molecule `CCc1ccc(C2c3c(oc4ccc(C)cc4c3=O)C(=O)N2c2nc(C)c(C)s2)cc1` (stereo not given), the survival was inactive: 134%.
On to `O=C(Cn1cnc2scc(-c3ccccc3)c2c1=O)NCc1ccco1`, for which the survival is inactive: 108%.
Then `CCOc1cc(C2c3c(-c4ccccc4O)n[nH]c3C(=O)N2CCc2ccccc2)ccc1O` (stereo not given), with inactive: 81%; and `CNC(=O)COc1ccc(Nc2nnc(-c3ccc(C)c(S(=O)(=O)NC(C)(C)C)c3)c3ccccc23)cc1`, with inactive: 98%.
In the case of `COc1cc(NC(=O)Cn2cc(S(=O)(=O)c3ccccc3)c(=O)c3ccccc32)cc(OC)c1`, the survival was inactive: 78%.
As for `COc1cccc(-c2ccc3c(N)c(C(=O)Nc4ccc(C)c(F)c4)sc3n2)c1`, the survival was inactive: 110%.
